Results reported in PubChem BioAssay AID1963576 (National Center for Advancing Translational Sciences (NCATS), 2024).
In all, about 46,000 compounds went through this assay and about 60 (0.1%) were called active. Another 3% or so got no clear call; they are omitted. Calls come from the whole dose curve; as a rule, active = well fitted inhibition curve with a large enough effect; inconclusive = small, poorly fitted or top-dose-only effect; inactive = no such curve, though single readings can be large or run the other way. Some of the results follow.

assay: Primary qHTS assay for Inhibitors of ovarian cancer metastasis using an organotypic tumor microenvironment (TME) model.; note: nearly all actives have a fitted effect of over 65% in size;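 for activity change, negative = inhibition: plate controls were DMSO wells for no effect and tomatine positive control wells for full effect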; settings: SKOV3ip1-GFP adhesion/invasion on 3D omental model, fluorescence; series mostly up to 45.8 µM; activity change, negative = inhibition: at the top concentration
In short: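 qHTS, 4-pt dose (0.36-46 umol/L); SKOV3ip1-GFP, 1,200 cells/well, no FBS; primary omental fibroblast/mesothelial co-culture 48 h pre-grown; 2 h RT + 16 h 37 C; PBS wash, 4% PFA; GFP count 488/509 nm.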

Compound | activity change, negative = inhibition | outcome
CCOC(=O)c1sc2ccccc2c1S(=O)(=O)Nc1ccc(N(C)C)cc1 | inactive: -3.03% | –
Cc1cc(S(=O)(=O)Nc2cccc(C(=O)O)c2)c(C)c(S(=O)(=O)c2ccccc2)c1 | inactive: -7.66% | –
COC(=O)c1cc(NC(=O)CCc2c(C)nc3c4c(C)cc(C)nc4nn3c2C)cc(C(=O)OC)c1 | – | inactive
COc1ccc(-c2nc(C)c(CCNC(=O)C(=O)Nc3cccc(F)c3)s2)cc1OC | inactive: 28.4% | –
CC1CCN(c2nc3c(S(=O)(=O)c4ccccc4)nnn3c3ccsc23)CC1 | inactive: 1.89% | –
CCc1ccccc1NC(=O)c1cc(S(=O)(=O)N(CC)c2ccccc2)ccc1F | inactive: -2.53% | –
O=C1NC(=O)C(=Cc2ccc3nccnc3c2)S1 | inactive: -12.8% [at 23.2 µM] | –
COc1ccccc1NC(=O)CCCOc1cc(=O)n(C)c2ccccc12 | inactive: -4.03% | –
CCc1ccc(CN(Cc2ccco2)C(=O)c2ccccc2Cl)cc1 | – | inactive
CCc1ccccc1NC(=O)Nc1nnc(N2CCCC2)s1 | inactive: -23% | –
Cc1ccc(C)c(Cn2c(=O)n(Cc3ccccc3)c(=O)c3c(C)c(C)sc32)c1 | inactive: 11% | –
CCOC(=O)CCn1nc(-c2ccc(C)cc2)c2ccccc2c1=O | inactive: -7.13% | –
O=C(CC1N=C2c3ccccc3N=C(SCC(=O)Nc3cccc(C(F)(F)F)c3)N2C1=O)NCc1cccs1 (stereo unspecified) | inactive: 1.65% | –
COc1ccc(CCNC(=O)c2nn(-c3ccc(C)cc3)c(=O)c3c2c2ccccc2n3C)cc1OC | inactive: 15.4% | –
Cc1ccc(C)c(N2CCN(S(=O)(=O)c3ccc4oc(=O)c5ncn(C)c5c4c3)CC2)c1 | inactive: 4.87% | –
COc1cc(NC(=O)Cn2c(=O)n(Cc3ccccc3OC)c(=O)c3cccnc32)cc(OC)c1 | inactive: -5.85% | –
Cc1ccc(C(=O)COC(=O)c2cc(-c3ccccc3)nc3ccccc23)cc1C | inactive: -8.74% | –
COc1ccc(NC(=O)CCN2CCN(c3cccc(Cl)c3)CC2)cc1 | inactive: -6.27% | –
CCCNC(=O)c1ccc2c(c1)N(Cc1cccc(C)c1)C(=O)c1ccccc1S2 | inactive: -7.51% | –
Cc1ccc(S(=O)(=O)c2nnn3c2nc(NCc2ccc(F)cc2)c2sccc23)cc1 | inactive: 2.69% | –
CCc1ccc(NC(=O)CC2C(=O)N(c3cccc(OC)c3)C(=O)N2Cc2ccc(F)cc2)cc1 (stereo unspecified) | inactive: 17.6% | –
Cc1nc2ccn(Cc3ccccc3)c(=O)c2cc1C(=O)N1CCN(c2ccc(F)cc2)CC1 | inactive: 64.8% | –
COc1ccccc1NC(=O)Cn1c(SCC(=O)Nc2ccc(F)cc2)nc2ccccc21 | inactive: 17.3% | –
NCCS(=O)(=O)O | inactive: 1.45% | –

Compound | activity change, negative = inhibition | outcome
COc1cccc(CCNC(=O)c2c(O)nc3c(C)cccn3c2=O)c1 | inactive: 3.57% | –
CC(Sc1nnc2ccc3ccccc3n12)C(=O)Nc1ccc(Cl)cc1 (stereo unspecified) | inactive: 5.55% | –
CCCc1cc(=O)[nH]c(Nc2cc(C)ccc2OC)n1 | inactive: 3.29% | –
CCc1ccc(NC(=O)CC2C(=O)N(c3cccc(C)c3)C(=O)N2Cc2ccc(F)cc2)cc1 (stereo unspecified) | – | inactive
Cc1cc(NC(=O)n2ncc3c(C)cccc32)ccc1Br | inactive: 1.23% | –
COCCc1nn2c(=O)cc(COC(=O)C(c3ccccc3)c3ccccc3)nc2s1 | inactive: 8.96% | –
CCOC(=O)c1cnc2cc(-c3ccc(OCC)cc3)nn2c1-c1ccccc1 | inactive: 6.97% | –
COc1ccc(C)cc1NC(=O)C(=O)NCC(c1cccnc1)N1CCc2ccccc21 (stereo unspecified) | – | inactive
COc1ccc(NC(=O)CSc2nccn2Cc2ccc3c(c2)OCO3)cc1 | inactive: 2.95% | –
O=C1CC(c2ccccc2)Sc2ccccc2N1Cc1ccc(F)cc1 (stereo unspecified) | inactive: -3.06% | –
COc1ccc(C2=Nc3ccccc3NC(c3cccs3)=N2)cc1 | inactive: -2.77% | –
CCOc1ccccc1NC(=O)c1c(NC(=O)COc2ccccc2)sc2c1CCCC2 | inactive: 10.5% | –
Cc1cc(C)c(NC(=O)CSc2ccc(-c3ccccn3)nn2)c(C)c1 | inactive: 0.725% | –
CN(C)CCNC(=O)CN1C(=O)COc2ccc(S(=O)(=O)N3CCCC3)cc21 | inactive: 46.5% | –
Cc1ccc(-n2c3c(cc(C(=O)Nc4ccccc4C(N)=O)c2=O)C(=O)CC(C)(C)C3)cc1 | inactive: 0.922% | –
CCCOc1ccc(NC(=O)CC2C(=O)N(c3ccccc3)C(=O)N2Cc2ccco2)cc1 (stereo unspecified) | inactive: 2.15% | –
CCNS(=O)(=O)c1ccc(NC(=O)CSc2nc(-c3ccco3)cc(C(F)(F)F)n2)cc1 | inactive: -1.52% | –
COc1cccc(NC(=O)CCC(=O)N2Cc3ccccc3Oc3ncccc32)c1 | inactive: 0.041% | –
Cc1ccc(-c2cc(C(=O)Nc3ccc(SC(F)F)cc3)no2)cc1F | inactive: -10.7% | –
CCCOc1ccc(CNC(=O)CCCn2ncn3c(cc4sc(CC)cc43)c2=O)cc1 | inactive: 2.21% | –
COc1ccccc1CNC(=O)c1c[nH]c2ccc(S(=O)(=O)Nc3cc(C)cc(C)c3)cc2c1=O | – | inactive
CC(C)OC(=O)c1cccc(NC(=O)Cn2nnc3sc4c(c3c2=O)CCCC4)c1 | inactive: 4.15% | –
Cc1ccc(-n2cc(-c3ccccc3)c3c(N4CCCCC4)ncnc32)cc1 | inactive: 0.343% | –
Cc1cccc(Nc2nnc(-c3ccc(C)c(S(=O)(=O)N4CCCCC4)c3)c3ccccc23)c1 | inactive: -9.36% | –

Compound | activity change, negative = inhibition | outcome
Cc1ccc(CNC(=O)CSc2nc3ccsc3c(=O)n2Cc2ccccc2F)cc1 | – | inactive
CCN(CC)c1ccc(NC(=O)c2cccn2-c2nnc(N3CCCCC3)s2)c(C)c1 | inactive: 21.9% | –
Cc1ccc(NC(=O)C(Cc2ccccc2)NS(=O)(=O)c2ccc3c(c2)c(=O)n(C)c(=O)n3C)c(C)c1 (stereo unspecified) | inactive: 28.5% | –
Cc1c(Cl)cccc1-n1ncc(C(=O)N2CCN(c3ncccn3)CC2)c1C1CCN(C(=O)OC(C)(C)C)CC1 | inactive: 12% | –
CCc1cccc(NS(=O)(=O)c2c(C)[nH]c(=O)[nH]c2=O)c1 | inactive: -4.83% | –
CCOc1ccc(CNC(=O)c2ccc3oc(=O)n(Cc4ccccc4)c3c2)cc1 | – | inactive
COc1ccc(CCNC(=O)CCc2c(C)nc3c4c(C)cc(C)nc4nn3c2C)cc1OC | inactive: 3.55% | –
Cc1ccc(CNC(=O)C2CCN(S(=O)(=O)N3CCCCC3)CC2)cc1 | – | inactive
Cc1ccc(Cn2nnc3c(=O)[nH]c(C4CCN(C(=O)Cc5ccccc5F)CC4)nc32)cc1 | – | inactive
CC(=O)c1c(C)oc2ccc(N(C(=O)Oc3ccccc3)S(=O)(=O)c3ccc(Cl)cc3)cc12 | inactive: 10.7% | –
COc1cccc2c1cc1c(=O)n(CC(=O)N3CCN(c4cccc(C)c4C)CC3)nc(C)n12 | inactive: 10.5% | –
CCOc1ccccc1Nc1nc2ccccc2c2nncn12 | inactive: 7.72% | –
Cc1ccc(S(=O)(=O)Nc2cccc(-c3ccc(N4CCC(C)CC4)nn3)c2)s1 | inactive: 0.939% | –
COc1ccc(OCC(=O)Nc2ccc(-c3nc4cc(C)cc(C)c4o3)cc2)cc1 | inactive: -9.01% | –
Fc1ccc(N2CCN(c3nc4ccccc4c4nc(-c5ccccc5)nn34)CC2)cc1 | inactive: 5.4% | –
COc1ccc2c(c1)cc(CNc1ccc(OC)c(OC)c1)c(=O)n2CC(=O)Nc1ccccc1C | inactive: 7.13% | –
CC1CCN(S(=O)(=O)c2ccc3c(c2)CCN3C(=O)Nc2ccccc2Br)CC1 | inactive: 0.244% | –
COc1ccc2c(c1)c1c(c(=O)n(CCc3ccccc3)c(=O)n1Cc1cccc(Cl)c1)n2C | inactive: 34.6% | –
Cc1ccc(NC(=O)C2CCCN(S(=O)(=O)c3ccc4[nH]c(=O)ccc4c3)C2)cc1Cl (stereo unspecified) | inactive: -0.84% | –
COc1ccc(CC(=O)Nc2nc3c(s2)CC(C)CC3)cc1 (stereo unspecified) | inactive: 0.458% | –
CC1CN(C(=O)N2CCC(C(=O)NCCCc3ccccc3)CC2)c2cc(Cl)ccc2O1 (stereo unspecified) | – | inactive
COc1cc(NC(=O)c2ccc(C)c(Cl)c2)ccc1NC(=O)c1cc2ccccc2o1 | inactive: 0.526% | –
CCCn1cc(S(=O)(=O)c2ccc(C)cc2)c(=O)c2cc(F)c(N3CCCC3)cc21 | inactive: -4.75% | –
CCOc1ccccc1Nc1ncnc2c1cnn2-c1ccc(C)cc1 | inactive: 4.61% | –

Compound | activity change, negative = inhibition | outcome
CC(=O)Nc1cccc(NC(=O)c2cc3c(=O)n4cccc(C)c4nc3n2C)c1 | inactive: -20.1% | –
O=C(NCc1cccc(Cl)c1)c1c2c(nc3ccccc13)C(=O)N(C1CCCCC1)C2 | inactive: -4.41% | –
COc1nc(C)nc(Cl)c1NC1=NCCN1 | inactive: -10.5% | –
Cc1ccc(CNC(=O)CSc2ncc3c(n2)-c2cc(Cl)ccc2N(C)S3(=O)=O)cc1 | inactive: 12.6% | –
Cc1c(C(=O)NCc2ccc(Cl)cc2)oc2ccc3c(c12)C(=O)CC(C)(C)O3 | – | inactive
CCCCOc1ccc(CNC(=O)c2cccc(NC(=O)N3CCSc4ncccc43)c2)cc1 | – | inactive
COc1cccc(Cn2cc(C(=O)c3ccccc3)c(=O)c3cc4c(cc32)OCO4)c1 | inactive: -7.86% | –
COc1cc2cc(CNc3ccccc3)c(=O)n(CC(=O)Nc3cccc(Cl)c3C)c2cc1OC | – | inactive
COc1cc(NC(=O)Cn2c(=O)n(CC3CCC(C(=O)NCCc4ccccc4)CC3)c(=O)c3ccccc32)cc(OC)c1 (stereo unspecified) | inactive: 82.2% | –
Cc1ccc(NC(=O)c2ccc(CN3CCN(C)CC3)cc2)cc1Nc1nc(-c2cccnc2)cs1 | inactive: 4.21% | –
CCCCNC(=O)C1CCCN(S(=O)(=O)CCC)C1 (stereo unspecified) | inactive: -28.9% | –
CCc1nn(CC(=O)NC2CC2)c(=O)c2cc3c(OC)cccc3n12 | inactive: 6.99% | –
CCOc1ccccc1C1CC(=O)Nc2c1c(=O)n(C)c1ncnn21 (stereo unspecified) | – | inactive
COc1ccc(-n2ncc3c(NCCCOC(C)C)ncnc32)cc1 | inactive: -21.2% | –
CCc1nn2c(=O)cc(COC(=O)c3cccc(NC(=O)CCc4ccccc4)c3)nc2s1 | inactive: -20.6% | –
CCCCN(CC)CCCNC(=O)c1c(C)oc2ncnc(N3CCOCC3)c12 | – | inactive
COc1ccc(-n2c(C)nc3c(cnn3-c3ccc(F)cc3)c2=O)cc1 | inactive: -13.7% | –
Cc1ccc(NCc2cccn2-c2nnc(N3CCC(C(=O)NCCc4ccc(Cl)cc4)CC3)s2)cc1 | – | inactive
CCc1ccc(C(=O)c2cn(CC(=O)Nc3ccc4c(c3)OCCO4)c3ccc(F)cc3c2=O)cc1 | inactive: -5.85% | –
CCCCc1ccc(-n2nc3cc(C)c(NC(=O)c4ccc(C#N)cc4F)cc3n2)cc1 | inactive: 3.17% | –
CCc1nn(CC(=O)NCCc2ccc(OC)cc2OC)c(=O)c2cc3occc3n12 | – | inactive
COc1cc2c(=O)n(CCC(=O)NCC3CCCO3)c(=O)n(CC(=O)Nc3ccccc3C)c2cc1OC (stereo unspecified) | inactive: -0.925% | –
COc1ccccc1CNC(=O)C1CCN(c2nc3ccc(Cl)cc3[nH]2)CC1 | – | inactive
CCn1cc(/C=C(\NC(=O)c2ccc(OC)cc2)C(=O)NCCCn2ccnc2)c2ccccc21 | inactive: 22.3% | –
